A number of entries come with more than one value. This is not the full list of results. An entry can have further records. The values listed for one entry repeat one measurement across runs, samples, wells, individuals or studies. A date in brackets names the month of the test. Counts like (3×) count equal records among those shown.
Tested on: LG0567-F671-PDC complex spheroids viability
Test: Anticancer human tumor LG0567-F671-PDC patient-derived lung adenocarcinoma cell line growth inhibition [RAS]
Settings: for viability, T/C: stronger effect = lower value; for IC50: compound alone
Source text: RAS pathway inhibitors in Combinations in Complex Spheroids
A high-throughput screen of multi-cell type tumor spheroids was designed to identify active combinations of RAS pathway inhibitors and targeted small molecules. Complex spheroids include a stromal component modeled by human endothelial cells (HUVEC) and fibroblasts modeled by human mesenchymal stem cells (MSCs). The concentration ranges selected for each drug and investigational agent were based upon clinically achievable concentrations if the clinical Cmax of the agent was known.
Compounds. The drugs and investigational agents: abemaciclib (NSC768073), cobimetinib (NSC768068), divarasib (GDC6063, NSC841802), docetaxel (NSC628503), GDC-1971 (RLY-1971, NSC841576), gemcitabine (NSC613327), inavolisib (NSC800729), ipatasertib (NSC767898), KB-0742 (NSC834161), MRTX-1133 (NSC836407), osimertinib (NSC779217), RMC-4630 (NSC839698), RMC-6236 (NSC851965), RMC-6291 (NSC852671), Ro-3306 (NSC812927), sapanisertib (NSC764658), SN-38 (NSC673596), staurosporine (NSC755774), SY5609 (NSC837396), and tovorafenib (DAY101, NSC766906), were obtained from the National Cancer Institute (NCI) Developmental Therapeutics Program Chemical Repository. The FDA-approved anticancer drug set is available from the NCI Developmental Therapeutics Program. […] The stock solutions were prepared in dimethyl sulfoxide (DMSO, Sigma-Aldrich, St. Louis, MO, cat. D2650) at 800-fold the tested concentration and stored at -70 degrees C prior to their use. All drugs and investigational agents were tested over a range starting from a high concentration at or near the clinical Cmax and decreasing in half-log increments. If the clinical Cmax for an agent had not been determined, the highest concentration tested was 10 microM.
Cell Culture. All cells were maintained in an incubator at 37 degrees C and 5% CO2 with 95% humidity. The PDC lines were cultured according to standard operating procedures established by the NCI PDMR. All PDCs were thawed and cultured in Matrigel-coated flasks prepared with a working solution of 1X Ham's F-12 nutrient mix, without supplementation (Invitrogen, Waltham, MA, cat. 11765054), 100 U/mL penicillin-streptomycin (Invitrogen, cat. 15140122), and 2.5% Matrigel (Corning Inc., Corning, NY, cat. 354248) for the first three passages. The 362531-283-R-J2-PDC and 782815-120-R-J1-PDC lines were cultured in 6C/Colon 1B media, which includes advanced DMEM/F-12 (Thermo Fisher Scientific, cat. 12634028), 10 mM HEPES (Thermo Fisher Scientific, cat. 15630080), 1X GlutaMAX supplement (Thermo Fisher Scientific, cat. 35050061), 0.1 mg/mL primocin (InvivoGen, San Diego, CA, cat. ant-pm-2), 10% defined fetal bovine serum, heat inactivated (HyClone Laboratories Inc., Logan, UT, cat. SH30070.03HI), 50% L-WRN conditioned media (ATCC, cat. CRL-3276), 1.25 mM N-Acetyl-L-cysteine (Sigma-Aldrich, cat. A9165), 10 mM nicotinamide (Sigma-Aldrich, cat. N0636), 1X B-27 supplement (Thermo Fisher Scientific, cat. 17504044), 1X N-2 supplement (Thermo Fisher Scientific, cat. 17502048), 50 ng/mL human EGF (Thermo Fisher Scientific, cat. PHG0311), and 10 microM Y-27632 dihydrochloride (Tocris Bioscience, cat. 1254). The K12877-001-R-J1-PDC line was cultured in 6I media, which includes all 6C/Colon 1B media plus 10 ng/mL human FGF-10 (PeproTech, cat. 100-26), 1 ng/mL human FGF-2 (PeproTech, cat. 100-18B), 1 µM prostaglandin E2 (Tocris Bioscience, cat. 2296), […] hydrocortisone (Sigma-Aldrich, cat. H4001), and […] bovine insulin (Sigma-Aldrich, cat. I6634). The K86415-001-R-J1-PDC line was cultured in 6D media, which includes all 6C/Colon 1B media components minus the L-WRN conditioned media. The 485176-168-R4-J1-PDC was cultured in PANC media, which includes all 6C/Colon 1B media plus 100 ng/mL human FGF-10 (PeproTech, cat. 100-26), 500 nM SB-431542 (Selleckchem, cat. S1067), and 10 nM gastrin (Tocris Bioscience, cat. 3006). […]
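Also: spheroids exposed to compound for seven days before readout.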
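For IC50 in this document: luminescence signal used as a proxy for viable cells.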

## CC(C)NCC(C(=O)N1CCN(c2ncnc3c2C(C)CC3O)CC1)c1ccc(Cl)cc1 (configuration not stated)
Compound alone 3.16 µM
  viability, T/C: 59.6%, 91.6% [2024-08] and 62.5%, 65.7% [2024-09]

## CC1(C)CCC(Nc2ncc(C(F)(F)F)c(-c3c[nH]c4c(P(C)(C)=O)c(C#N)ccc34)n2)CN1 (configuration not stated)
  IC50: > 300 nM (2×) [2024-08] and 12.3 nM, > 300 nM [2024-09]
Compound alone 0.000949 µM
  viability, T/C: 71.2%, 86.8% [2024-08] and 59.4%, 70% [2024-09]

## CC(C)n1nc(-c2ccc3oc(N)nc3c2)c2c(N)ncnc21
  IC50: > 100 nM, 45 nM [2024-08] and 44.7 nM, 44.1 nM [2024-09]
Compound alone 0.1 µM
  viability, T/C: 96%, 37.3% [2024-08] and 36.8%, 34.5% [2024-09]

## CC1(O)CCCC1n1c(=O)c(C(F)F)cc2cnc(NC3CCN(S(C)(=O)=O)CC3)nc21 (configuration not stated)
  IC50: 9.26 µM, > 10 µM [2024-08] and 6.84 µM, 6.63 µM [2024-09]

## C=CC(=O)Nc1cc(Nc2nccc(-c3cn(C)c4ccccc34)n2)c(OC)cc1N(C)CCN(C)C
Compound alone 0.00316 µM
  viability, T/C: 102%, 116% [2024-08] and 93%, 88.6% [2024-09]

— PubChem BioAssay AID2060889 (Molecular Pharmacology Branch, DTP, NCI, 2025)
